Experimental data reported in article PMC6919601, “Identification of Plasmodium dipeptidyl aminopeptidase allosteric inhibitors by high throughput screening” (PLoS ONE, 2019).
Out of some 110,000 compounds screened, about 230 (0.21%) showed an effect of 50% or more. The list shows a part of the results.

biological target: DPAP1 (Plasmodium falciparum, UniProt Q8IIJ9); assay: primary screen, percent inhibition; read by cleavage of a fluorogenic dipeptide substrate; higher = more effect of the substance; design: species or system P. falciparum D10 trophozoite lysates; single well
Sequence (Q8IIJ9 whole entry, looked up): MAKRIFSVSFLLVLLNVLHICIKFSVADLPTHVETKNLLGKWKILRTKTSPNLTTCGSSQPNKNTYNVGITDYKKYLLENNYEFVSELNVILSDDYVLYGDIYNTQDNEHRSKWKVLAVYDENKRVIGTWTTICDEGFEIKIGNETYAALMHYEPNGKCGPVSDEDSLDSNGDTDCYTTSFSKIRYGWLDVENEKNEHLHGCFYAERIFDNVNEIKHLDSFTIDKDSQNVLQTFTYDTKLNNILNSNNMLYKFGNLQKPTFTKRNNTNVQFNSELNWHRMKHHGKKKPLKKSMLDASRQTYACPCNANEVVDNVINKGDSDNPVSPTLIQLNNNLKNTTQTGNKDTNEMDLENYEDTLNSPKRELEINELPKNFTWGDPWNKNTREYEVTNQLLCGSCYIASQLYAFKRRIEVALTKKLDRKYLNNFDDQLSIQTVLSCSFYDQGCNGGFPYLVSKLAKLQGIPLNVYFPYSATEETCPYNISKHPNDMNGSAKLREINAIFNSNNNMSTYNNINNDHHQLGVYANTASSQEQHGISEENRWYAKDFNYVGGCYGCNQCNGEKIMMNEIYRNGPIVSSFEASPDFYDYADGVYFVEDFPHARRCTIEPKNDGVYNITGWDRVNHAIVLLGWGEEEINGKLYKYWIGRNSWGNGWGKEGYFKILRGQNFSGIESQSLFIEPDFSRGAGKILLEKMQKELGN
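Further: 30 min substrate incubation versus DMSO and 10 µM JCP410 controls.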

SMILES	% Inhibition @ 10 uM [%]
COc1ccc(OC)c(S(=O)(=O)c2ccc(Cl)c(Cl)c2)c1	-3.93
Clc1cccc(N2CCN(C3C4CC5CC(C4)CC3C5)CC2)c1 (centres unmarked)	3.44
CN(c1ccc(C(=O)N2CCN(Cc3ccccc3)CC2)cc1)S(C)(=O)=O	-3.03
COc1ccc(S(=O)(=O)Cc2ccc(C(=O)NCCCN3CCc4ccccc4C3)o2)cc1	25.9
CCc1cccc2c1NC(=O)/C2=C1\SC(Nc2cccc(Cl)c2)=NC1=O	-0.641
CC1CCCC(C)N1CCCNC(=O)CN1C(=O)CSc2ncccc21 (centres unmarked)	-6.24
O=C(O)CCCC[C@@H]1SCC2(O)NC(=O)N[C@@H]12 (some centres unmarked)	-3.52
CCOC(=O)c1c(C)n(C)c2ccc(O)c(CN3CCC(C)CC3)c12	3.04
Cc1c(C(=O)NCc2cccnc2)sc2ncn(CC(=O)N3CCCCC3C)c(=O)c12 (centres unmarked)	-2.17
O=C(Cn1ncc2c3ccccc3n(Cc3ccccc3F)c2c1=O)NCc1cccnc1	3.4
Cc1nn(C)c(C)c1CN(C)C(=O)c1cnn2c(C(F)(F)F)cc(-c3ccccc3)nc12	-3.87
O=C(CNC(=S)N(Cc1ccc(F)cc1)C1CCCCC1)N1CCCC1	4.47
COc1ccc(Cc2nnc(NC3CCCCC3)nc2O)cc1	-2.04
CCOC(=O)N1CCN(Cc2cccc(F)c2)CC1	-9.93
COc1ccc(C(=O)Nc2ccc(S(=O)(=O)N3CCC(C)CC3)cc2)c(OC)c1	13.5
O=C(O)c1ccc(S(=O)(=O)c2ccc3c(c2)C(=O)N(c2nccs2)C3=O)cc1	3.25
O=C(ON1C(=O)c2cccc3cccc(c23)C1=O)c1ccncc1	-2.75
CCCCOc1ccc(C(=O)Nc2cc3ccccc3oc2=O)cc1	0.997
Cc1cccc(-c2nc(CS(=O)CC(=O)N(C)CCC#N)c(C)o2)c1 (centres unmarked)	0.689
Cc1ccc(Cl)cc1N1CCN(S(=O)(=O)c2ccccc2)CC1	-3.39
Cc1ccc(-c2ccc(=O)n(CCC(=O)NC3CCCC(C)C3C)n2)cc1 (centres unmarked)	-0.0542
CCOc1ccccc1C(=O)Nc1ccc(C)cn1	1.15
O=C(Nc1ccc(-c2nc3ccccc3s2)cc1)c1ccc(S(=O)(=O)N2CCCCC2)cc1	-3.93
O=C(CSc1ncccc1C(=O)O)NCCC1=CCCCC1	4.36
O=C(Cn1cc(/C=C2\NC(=O)N(Cc3ccccc3)C2=O)c2ccccc21)N1CCOCC1	0.408
Cc1cccc(CCNC(=O)CN(C)S(=O)(=O)c2ccc3nc(C)sc3c2)c1	5.65
